# ± gives the standard deviation of the averaged measurements. The list shows a part of the results.
# Tested on: PfAP2-LT AP2 domain (GST-tagged)
# Assay: gcPBM binding intensity (ln(normalized median fluorescence intensity)); higher = stronger DNA binding
# Procedure, shortened: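 Using an Agilent 4 × 180k array, primer-extended double-stranded 36-bp intergenic genomic probes and negative controls were exposed for 1 h to GST-fused P. falciparum DNA-binding domains expressed in E. coli. Binding was carried out in 1× PBS with 1% milk, 0.2 mg/ml BSA, 0.5% salmon testes DNA and 0.03% Triton X-100, and protein was detected with Alexa488 anti-GST antibody and a 488 nm scan. Binding intensity is the highest Masliner-normalised natural-log median intensity across replicate spots of either probe orientation.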
row,Sequence,gcPBM binding intensity (ln)
1,TGAAGGTTTCAAAAACGTACAAAAAAAAATGTTAGT [XGTACX_site8803],8.82 ± 0.49
2,TTTTTTTTTTATGGTACACACACGCGTATGGTTGCA [CACACA_site1876],9.36 ± 0.41
3,TTTAGAAATAAATACACACATACATTTTTGTATACA [CACACA_site718],8.74 ± 0.4
4,TAAAATAAAAATATAGTGCACAGATTTTGATATTTT [GTGCAC_site9696],8.77 ± 0.47
5,CTTTGTGGTATAGATACACACTATATTAAGATGAAC [CACACA_site5215],8.78 ± 0.37
6,CACATTATGTATCATACACACAAATAGATATATAAC [CACACA_site6434],9.38 ± 0.3
7,ACTTTTATTCGCTTACGTACATATATTATATATTAT [XGTACX_site4459],9.44 ± 0.48
8,AAAAGAAAATATATGTGTACTAAAATATATATATAT [XGTACX_site3817],9.04 ± 0.36
9,TTTAAAGTAATAAAGTGTACAAAAATAAATTCAGCT [XGTACX_site8651],9.12 ± 0.54
10,TACCTACACTTTTGGAGTACAATTAAAAAAAAAAAA [XGTACX_site1403],8.38 ± 0.46
11,GTTTATTAAACATTAGTGCAATTTTAATCCATTCTA,8.39 ± 0.45
12,CAAATCAAAATTAATTAACACACAATTTTAATATTC [CACACA_site8641],8.7 ± 0.44
13,TTCTTTGTAGTATATTAACACACAACTGTTTATAAT [CACACA_site9305],8.97 ± 0.4
14,AAATAGAGAAATACAAGTACATACTAAACCAATCTA [XGTACX_site2780],9.03 ± 0.4
15,TATAATGTTGATAATAGTACGTATGAGTTCAAAAAA [XGTACX_site988],8.7 ± 0.57
16,AAAGGATATAATACCATACACACATTTATAAAATAA [CACACA_site1931],9.06 ± 0.49
17,AAATCATGTTGAAGGGGTACAAAATATGTAATGTTG [XGTACX_site6222],8.94 ± 0.51
18,ATATTATATATTTGATGTACATTGAATGAGAGAGAA [XGTACX_site3324],8.82 ± 0.49
19,TATATATATATATAATGTACAGAAAAAAAAAAAAAA [XGTACX_site6141],8.76 ± 0.45
20,TTAATCCTTTTTAAAAGTACACATATATATATATAT [XGTACX_site962],9.075 ± 0.078
21,AAAAAAAAAAAAGATACACACAAAAATGAATATATA [CACACA_site2099],9.05 ± 0.61
22,ACGGGTCAATATATGCGTACTTATTTAAATAATTAA [XGTACX_site1518],8.68 ± 0.45
23,ATTATGTATATAAATTAACACACATATGTGGTTAAT [CACACA_site9028],8.88 ± 0.3

row,Sequence,gcPBM binding intensity (ln)
1,ATAAATGGAAACAAAAGTACTAAAAAAAAAAAATAA [XGTACX_site1510],8.67 ± 0.59
2,AATAATATAGATTGTACACACAAAATGGGAAAAAAA [CACACA_site1886],9.18 ± 0.54
3,TATATATGTATGTATTGTACAATTAAAAATATGTAT [XGTACX_site3990],8.65 ± 0.4
4,ATCAAGCACCAACACACACACACACCCCCACCCACA [CACACA_site370],10.6 ± 0.11
5,TAAATAAATAAAAAAACACACATATATATATATATA [CACACA_site4029],9.6 ± 0.44
6,TTTTATCACATTATTGCACACACATAAAGAAAAAAA [CACACA_site8922],9.04 ± 0.3
7,ATATATATATATAACTGTACTTATATATACATTTTA [XGTACX_site8605],9.11 ± 0.16
8,ATATATATATATATATGTACATATATATATAATTTT [XGTACX_site4146],9.34 ± 0.54
9,TTATATTTATTTATTTGTACATATTTTTTTTTATAT [XGTACX_site1669],8.76 ± 0.57
10,TTTCTTTTTAAATATATACACACCGTGGGTACATAT [CACACA_site9102],8.92 ± 0.52
11,ATATAATAAAATGACACACGCATATATATATATATA [CACACA_site2789],9.955 ± 0.021
12,AGGCTCAAATCTAGGTGTACCATTATCGTTGTATCT [XGTACX_site4730],8.99 ± 0.37
13,ATTTTTTCTTATAATGCATGTAGAAAACCGTACAGC [TGCATGCA_site57],8.57 ± 0.4
14,CCTAAATTATATTATGCACACTTAAAAATATATTTA [CACACA_site5861],8.54 ± 0.4
15,TATGTGTTTATTTGGTGTACATACTAATAAATATAC [XGTACX_site1682],8.74 ± 0.33
16,ATATATATATATATATGTACTTATTTATCGTATTAT [XGTACX_site3520],9.84 ± 0.31
17,ATTAATATTCTATATGCATGTGAACCATGGTATATA [TGCATGCA_site430],8.77 ± 0.42
18,TCATATCTTTTGAGCACACATATATATATATAAAGG [CACACA_site3338],8.9 ± 0.34
19,ATAAAATATTAATTTTAAATTAATCAATATATATAA [GTGCAC_negctrl_site474],8.21 ± 0.52
20,TTCTCATTCAAATTAGTGCATTTTTGTTATTACATT,8.8 ± 0.49
21,AAACAGAAGACATATACACACATACAAAAAAGTGCA [CACACA_site4699],9.38 ± 0.49
22,TGTGTATATATATAATGTACATAAAGATTTATATAT [XGTACX_site5835],8.78 ± 0.49
23,TTTTAAGAATAAAATTGTACACATACATGTGTTCGC [XGTACX_site438],8.99 ± 0.49

row,Sequence,gcPBM binding intensity (ln)
1,TTATTTATATATTCATGTACATAACATTTCATTCGA [XGTACX_site4388],8.64 ± 0.49
2,ATATAAATTTTTTAGAGTACTAAAATAAAATAATAT [XGTACX_site2118],8.45 ± 0.47
3,TAAAAAATGAAAAAGCGTACATGTTTTCTTATATTA [XGTACX_site1722],8.53 ± 0.44
4,TTTTCTAAAATGAATTGTACTTGATTATTTAAAAAA [XGTACX_site6097],8.05 ± 0.41
5,ATACTAAAAAGTATCTGTACTTATTTTAAAAATAAA [XGTACX_site4116],8.19 ± 0.53
6,TATTTACTTATATGCACACATAAATGTGAATTATGG [CACACA_site3777],9 ± 0.34
7,TAAATAATTAAAATATGTACTGAAATGTAATTATTT [XGTACX_site5894],8.6 ± 0.45
8,TGTATCATAAAAATAACACACGTATTTTTTTTTATT [CACACA_site1050],8.68 ± 0.45
9,AATAATATATATATATATATAATAAAATATAAATAG [CACACA_negctrl_site1515],8.95 ± 0.38
10,CCAACATGCCCACGCACACACAAAAAAAGCATGCAT [CACACA_site4217],9.51 ± 0.4
11,TTATTTATTTATAATAGTACAATTTAATGATCTTCT [XGTACX_site4831],8.44 ± 0.58
12,TGTTTTATACTAAATGAACACACACCCATATATATA [CACACA_site7912],9.13 ± 0.13
13,CAATATATTTGATTTACACACTTACAATGTATATAA [CACACA_site2994],8.73 ± 0.37
14,AAAAATAACGTAAATTGTACATGTAAAATTTTCTAT [XGTACX_site7158],8.98 ± 0.3
15,ATATGAAATAATAATAGTACATAAAATAATTTTACT [XGTACX_site6964],8.69 ± 0.41
16,ATAGAAATATATATATGTACATATAGATAAATCTAT [XGTACX_site7833],8.9 ± 0.34
17,ATAAATACAGATAACACACACATATATATATATATA [CACACA_site5431],10.225 ± 0.0071
18,ACATTTTTTTTTTTTTTTCTTTTTCTTTTTCTTTTT [CACACA_negctrl_site1295],8.71 ± 0.66
19,AACTTTGAGACATAGTGTACTTACACAATCTTAATA [XGTACX_site3712],8.65 ± 0.45
20,CATATTTGATACAAGTGTACTTTATTTAAAAATTCT [XGTACX_site8408],8.5 ± 0.41
21,TTTCAAAAAAATAGCTATATTTATATTAATGCACGA [TGCATGCA_negctrl_site63],8.49 ± 0.4
22,TATATAACTGTCTTCAGTACACAATAAATAAAAATA [XGTACX_site8856],8.69 ± 0.4
23,TAATAAAAATAAAATTGTACTAATAACATTTCATTA [XGTACX_site3703],8.27 ± 0.45

row,Sequence,gcPBM binding intensity (ln)
1,AAAGGTGTATATAATACACACGTGTGATTAAAATTG [CACACA_site8104],9.3 ± 0.28
2,GAAAAAATAAAATAAAGTACATAACTATAATAAAAA [XGTACX_site4807],8.88 ± 0.7
3,TACTCCTCAATATTATGTACATATAATAGTTATAAA [XGTACX_site8551],8.47 ± 0.46
4,CTTACACCCATATATACACACATGTATATTTTATAT [CACACA_site4462],9.21 ± 0.4
5,ATATATAAACACTCTTGTACATAATAATGTATATAT [XGTACX_site2451],8.87 ± 0.33
6,TCGTATCTATTGAGGGTGCCTCTATAATTGATACAA [GTGCAC_site9636],8.38 ± 0.35
7,TAATATAATATATGCACACAAATATGTATTTATGTG [CACACA_site5210],9.88 ± 0.18
8,AGTAAATAATAGATCGCATGTAATAACTAGTAGGAA [TGCATGCA_site948],9.2 ± 0.48
9,ATTATAAAGACATATACACACATACGTACATACATA [CACACA_site5893],9.18 ± 0.3
10,ACAATTGAAGAAATACGTACATAAAGAAAAACTAGT [XGTACX_site820],9.15 ± 0.45
11,AAAATCACAAGACACACACACACAAAAAAAAAAAAA [CACACA_site6791],9.94 ± 0.58
12,AGTATAAAATAAATGTGTACACAAGAAAATATGTTA [XGTACX_site8381],9.18 ± 0.57
13,ATATATATATGTATGTGTCCACAAGGAGATATATAT [XGTACX_site783],9.43 ± 0.3
14,AAAATATTTTAATGTTGTACATTAATATATTATATA [XGTACX_site2513],8.46 ± 0.4
15,TGTATTAAATTTTGAACACACAAAATAAAACATATA [CACACA_site1672],8.73 ± 0.43
16,AACAGATAAAAGGGTACACACATATATACCTGTACA [CACACA_site4285],9.19 ± 0.42
17,TGTACATTCGGAGTAAAAAAAAATTTATACAATTAC [CACACA_negctrl_site1451],8.54 ± 0.4
18,TACATAAATATATGTGTGCACAATTTCGTATATTTA [GTGCAC_site9859],9.15 ± 0.4
19,TAAAATATAATTAGCACACATATATAAAATATATAT [CACACA_site4093],8.79 ± 0.37
20,TTTTTTTTTTTTTGGGGTACATTTTAATTAATATTA [XGTACX_site4866],8.82 ± 0.19
